# Data taken from the supplement of paper PMC8728848.
# The list shows a part of the results.
# Key:
# Experiment in all cases: glycan array binding signal (z-score within array); higher = stronger binding
# Settings in all cases: glycan notation: IUPAC condensed, linker removed
# [1] = target: Gal(b1-4)GlcNAc(b1-6)Gal(b1-4)GlcNAc
# Procedure, shortened: (§1)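 Columns mapping to the same glycan were averaged after glycan names were converted to IUPAC-condensed notation. The data come from 3228 arrays in the Consortium for Functional Glycomics database, limited to those with an available protein sequence. Binding is reported as a within-array Z-score averaged across arrays of one protein sequence and across linkers.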
# [2] = target: Gal(b1-4)GlcNAc(b1-6)Gal(b1-4)GlcNAc(b1-6)GalNAc
# Procedure, shortened: as §1
# [3] = target: Gal(b1-4)GlcNAc(b1-6)GalNAc
# Procedure, shortened: as §1
# [4] = target: Gal(b1-4)GlcNAc(b1-6)[Gal(b1-3)]GalNAc
# Procedure, shortened: as §1
# Gal(b1-4)GlcNAc6P = target: Gal(b1-4)GlcNAc6P
# Procedure, shortened: as §1
# Gal(b1-6)Gal = target: Gal(b1-6)Gal
# Procedure, shortened: as §1
# Gal3S(b1-3)GalNAc = target: Gal3S(b1-3)GalNAc
# Procedure, shortened: as §1
# Gal3S(b1-3)GlcNAc = target: Gal3S(b1-3)GlcNAc
# Procedure, shortened: as §1
# [5] = target: Gal3S(b1-3)[Fuc(a1-4)]GlcNAc
# Procedure, shortened: as §1
# Gal3S(b1-4)Glc = target: Gal3S(b1-4)Glc
# Procedure, shortened: as §1
# Gal3S(b1-4)Glc6S = target: Gal3S(b1-4)Glc6S
# Procedure, shortened: as §1
# Gal3S(b1-4)GlcNAc = target: Gal3S(b1-4)GlcNAc
# Procedure, shortened: as §1
# Gal3S(b1-4)GlcNAc6S = target: Gal3S(b1-4)GlcNAc6S
# Procedure, shortened: as §1
# [6] = target: Gal3S(b1-4)[Fuc(a1-3)]Glc
# Procedure, shortened: as §1
# [7] = target: Gal3S(b1-4)[Fuc(a1-3)]Glc6S
# Procedure, shortened: as §1
# Gal3S4S(b1-4)GlcNAc = target: Gal3S4S(b1-4)GlcNAc
# Procedure, shortened: as §1
# Gal3S6S(b1-4)GlcNAc = target: Gal3S6S(b1-4)GlcNAc
# Procedure, shortened: as §1
# Gal3S6S(b1-4)GlcNAc6S = target: Gal3S6S(b1-4)GlcNAc6S
# Procedure, shortened: as §1
# Gal4S(b1-4)GlcNAc = target: Gal4S(b1-4)GlcNAc
# Procedure, shortened: as §1
# Gal4S6S(b1-4)GlcNAc = target: Gal4S6S(b1-4)GlcNAc
# Procedure, shortened: as §1
# Gal6P(b1-4)GlcNAc = target: Gal6P(b1-4)GlcNAc
# Procedure, shortened: as §1
# Gal6S(b1-3)GlcNAc = target: Gal6S(b1-3)GlcNAc
# Procedure, shortened: as §1
# Gal6S(b1-3)GlcNAc6S = target: Gal6S(b1-3)GlcNAc6S
# Procedure, shortened: as §1
binder,measurement,setting,value
"Calsepa (Calystegia sepium), P93114 (protein) MAVPMDTISGPWGNNGGNFWSFRPVNKINQIVISYGGGGNNPIALTFSSTKADGSKDTITVGGGGPDSITGTEMVNIGTDEYLTGISGTFGIYLDNNVLRSITFTTNLKAHGPYGQKVGTPFSSANVVGNEIVGFLGRSGYYVDAIGTYNRHK",glycan array binding signal (z-score),[1],-0.251
same,glycan array binding signal (z-score),[2],-0.129
same,glycan array binding signal (z-score),[3],-0.263
same,glycan array binding signal (z-score),[4],-0.249
same,glycan array binding signal (z-score),Gal(b1-4)GlcNAc6P,-0.27
same,glycan array binding signal (z-score),Gal(b1-6)Gal,-0.269
same,glycan array binding signal (z-score),Gal3S(b1-3)GalNAc,-0.229
same,glycan array binding signal (z-score),Gal3S(b1-3)GlcNAc,-0.263
same,glycan array binding signal (z-score),[5],-0.259
same,glycan array binding signal (z-score),Gal3S(b1-4)Glc,-0.253
same,glycan array binding signal (z-score),Gal3S(b1-4)Glc6S,-0.249
same,glycan array binding signal (z-score),Gal3S(b1-4)GlcNAc,-0.254
same,glycan array binding signal (z-score),Gal3S(b1-4)GlcNAc6S,-0.243
same,glycan array binding signal (z-score),[6],-0.248
same,glycan array binding signal (z-score),[7],-0.266
same,glycan array binding signal (z-score),Gal3S4S(b1-4)GlcNAc,-0.251
same,glycan array binding signal (z-score),Gal3S6S(b1-4)GlcNAc,-0.248
same,glycan array binding signal (z-score),Gal3S6S(b1-4)GlcNAc6S,-0.241
same,glycan array binding signal (z-score),Gal4S(b1-4)GlcNAc,-0.247
same,glycan array binding signal (z-score),Gal4S6S(b1-4)GlcNAc,-0.247
same,glycan array binding signal (z-score),Gal6P(b1-4)GlcNAc,-0.273
same,glycan array binding signal (z-score),Gal6S(b1-3)GlcNAc,-0.268
same,glycan array binding signal (z-score),Gal6S(b1-3)GlcNAc6S,-0.271
